Laboratory results taken from paper PMC10801813, “In silico protein interaction screening uncovers DONSON’s role in replication initiation” (Science (New York, N.Y.), 2023).
No constants are given. Whether binding was seen depends on the method and setting. For part of these data: In cells and extracts the contact can be indirect. Some binding calls cover weakened binding; strength is not graded here. For part of these data: Where a sequence is shown, tags or fusion partners need not be part of it.

Columns and labels:
[1] = target: T1, Recombinant FLAG-tagged DONSON, wild type (Xenopus laevis) (UniProt Q5U4U4); test: co-IP; purified FLAG-DONSON and GINS mixed in the absence of TOPBP1, each 0.5 μM in IP wash buffer, 15 min room temperature; anti-FLAG beads 30 min room temperature; immunoblot (fig. S11B, lanes 14 to 16; fig. S13C); both purified
T1 sequence: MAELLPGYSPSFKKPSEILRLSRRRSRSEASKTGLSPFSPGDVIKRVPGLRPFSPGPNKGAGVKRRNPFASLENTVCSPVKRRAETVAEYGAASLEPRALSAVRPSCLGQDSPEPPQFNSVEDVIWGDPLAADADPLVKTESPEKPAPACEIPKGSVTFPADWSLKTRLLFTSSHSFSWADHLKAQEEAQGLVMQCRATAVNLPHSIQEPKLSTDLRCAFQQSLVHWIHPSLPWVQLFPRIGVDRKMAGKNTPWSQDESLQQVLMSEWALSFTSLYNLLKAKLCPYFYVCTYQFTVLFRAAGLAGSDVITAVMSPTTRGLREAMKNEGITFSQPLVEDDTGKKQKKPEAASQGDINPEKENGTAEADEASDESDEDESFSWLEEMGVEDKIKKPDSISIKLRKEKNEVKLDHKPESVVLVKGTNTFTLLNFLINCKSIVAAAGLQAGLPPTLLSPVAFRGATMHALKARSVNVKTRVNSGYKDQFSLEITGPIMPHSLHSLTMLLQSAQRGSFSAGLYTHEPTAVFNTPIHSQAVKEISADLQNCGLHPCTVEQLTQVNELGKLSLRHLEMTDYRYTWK

[2] = target: T2, Endogenous GINS of Xenopus nucleoplasmic egg extract (Xenopus laevis (endogenous in egg extract)) (UniProt Q7ZT47+Q7ZT46+Q7ZT01+Q7ZT48); test: co-IP; endogenous GINS precipitated from 30% NPE with anti-PSF3 antibody cross-linked to Dynabeads Protein A, 1 h 4°C, immunoblot
T2 sequence 1: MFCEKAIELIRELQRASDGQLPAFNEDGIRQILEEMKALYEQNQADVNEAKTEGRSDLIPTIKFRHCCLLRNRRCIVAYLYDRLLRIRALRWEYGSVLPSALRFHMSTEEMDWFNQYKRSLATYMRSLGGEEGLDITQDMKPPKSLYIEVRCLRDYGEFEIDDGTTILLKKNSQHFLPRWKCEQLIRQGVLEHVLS
T2 sequence 2: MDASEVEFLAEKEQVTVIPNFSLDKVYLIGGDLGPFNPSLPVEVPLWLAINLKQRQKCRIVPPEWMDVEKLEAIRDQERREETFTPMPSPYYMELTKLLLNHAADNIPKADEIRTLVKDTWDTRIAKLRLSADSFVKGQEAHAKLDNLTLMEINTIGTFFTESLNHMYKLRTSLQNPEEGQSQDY
T2 sequence 3: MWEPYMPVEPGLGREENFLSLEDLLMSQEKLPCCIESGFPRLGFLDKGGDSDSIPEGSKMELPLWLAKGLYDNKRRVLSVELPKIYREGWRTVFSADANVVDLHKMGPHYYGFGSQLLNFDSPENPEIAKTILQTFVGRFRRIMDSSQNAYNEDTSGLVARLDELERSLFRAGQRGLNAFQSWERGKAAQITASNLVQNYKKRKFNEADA
T2 sequence 4: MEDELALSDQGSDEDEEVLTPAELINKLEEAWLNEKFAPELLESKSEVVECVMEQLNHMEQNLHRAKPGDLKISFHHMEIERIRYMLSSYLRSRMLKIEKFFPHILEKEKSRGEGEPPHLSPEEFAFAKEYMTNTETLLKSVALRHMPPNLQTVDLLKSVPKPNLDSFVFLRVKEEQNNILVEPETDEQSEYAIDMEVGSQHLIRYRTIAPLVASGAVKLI

[3] = target: T3, FLAG-DONSON DEWE→RRAR, expressed in wheat germ extract (Xenopus laevis) (UniProt Q5U4U4); test: co-IP; FLAG-DONSON proteins expressed in wheat germ extract pre-immobilised on anti-FLAG M2 magnetic beads, incubated with 30% NPE 1 h 4°C, eluted with 3× FLAG peptide, immunoblot (Fig. 4D, figs. S12 and S14)
T3 sequence: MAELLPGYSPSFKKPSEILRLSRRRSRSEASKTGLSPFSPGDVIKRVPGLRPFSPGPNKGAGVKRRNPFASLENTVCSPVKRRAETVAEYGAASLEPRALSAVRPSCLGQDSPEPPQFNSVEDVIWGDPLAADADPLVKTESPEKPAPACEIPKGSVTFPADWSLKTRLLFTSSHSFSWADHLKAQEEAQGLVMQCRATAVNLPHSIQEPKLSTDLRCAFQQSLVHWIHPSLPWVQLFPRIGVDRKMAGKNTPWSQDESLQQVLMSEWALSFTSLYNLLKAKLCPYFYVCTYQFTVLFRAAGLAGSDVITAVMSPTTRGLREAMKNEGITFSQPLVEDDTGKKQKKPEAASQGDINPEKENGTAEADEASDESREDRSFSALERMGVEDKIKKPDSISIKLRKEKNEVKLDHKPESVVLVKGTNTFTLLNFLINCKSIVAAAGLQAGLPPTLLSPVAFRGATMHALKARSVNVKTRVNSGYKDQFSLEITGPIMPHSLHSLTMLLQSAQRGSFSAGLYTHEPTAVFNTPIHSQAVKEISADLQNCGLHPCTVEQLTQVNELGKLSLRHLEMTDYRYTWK

B1: Recombinant Xenopus laevis GINS with SLD5 H76A, bacterial expression (complex, UniProt Q7ZT47 1-196; Q7ZT46 1-185; Q7ZT01 1-210; Q7ZT48 1-221)
chain 1: MFCEKAIELIRELQRASDGQLPAFNEDGIRQILEEMKALYEQNQADVNEAKTEGRSDLIPTIKFRHCCLLRNRRCIVAYLYDRLLRIRALRWEYGSVLPSALRFHMSTEEMDWFNQYKRSLATYMRSLGGEEGLDITQDMKPPKSLYIEVRCLRDYGEFEIDDGTTILLKKNSQHFLPRWKCEQLIRQGVLEHVLS
chain 2: MDASEVEFLAEKEQVTVIPNFSLDKVYLIGGDLGPFNPSLPVEVPLWLAINLKQRQKCRIVPPEWMDVEKLEAIRDQERREETFTPMPSPYYMELTKLLLNHAADNIPKADEIRTLVKDTWDTRIAKLRLSADSFVKGQEAHAKLDNLTLMEINTIGTFFTESLNHMYKLRTSLQNPEEGQSQDY
chain 3: MWEPYMPVEPGLGREENFLSLEDLLMSQEKLPCCIESGFPRLGFLDKGGDSDSIPEGSKMELPLWLAKGLYDNKRRVLSVELPKIYREGWRTVFSADANVVDLHKMGPHYYGFGSQLLNFDSPENPEIAKTILQTFVGRFRRIMDSSQNAYNEDTSGLVARLDELERSLFRAGQRGLNAFQSWERGKAAQITASNLVQNYKKRKFNEADA
chain 4: MEDELALSDQGSDEDEEVLTPAELINKLEEAWLNEKFAPELLESKSEVVECVMEQLNHMEQNLHRAKPGDLKISFAHMEIERIRYMLSSYLRSRMLKIEKFFPHILEKEKSRGEGEPPHLSPEEFAFAKEYMTNTETLLKSVALRHMPPNLQTVDLLKSVPKPNLDSFVFLRVKEEQNNILVEPETDEQSEYAIDMEVGSQHLIRYRTIAPLVASGAVKLI
[1]
  binding: binds weakly

B2: Recombinant FLAG-tagged DONSON, wild type (natural protein, Xenopus laevis, UniProt Q5U4U4 1-579, looked up)
chain: MAELLPGYSPSFKKPSEILRLSRRRSRSEASKTGLSPFSPGDVIKRVPGLRPFSPGPNKGAGVKRRNPFASLENTVCSPVKRRAETVAEYGAASLEPRALSAVRPSCLGQDSPEPPQFNSVEDVIWGDPLAADADPLVKTESPEKPAPACEIPKGSVTFPADWSLKTRLLFTSSHSFSWADHLKAQEEAQGLVMQCRATAVNLPHSIQEPKLSTDLRCAFQQSLVHWIHPSLPWVQLFPRIGVDRKMAGKNTPWSQDESLQQVLMSEWALSFTSLYNLLKAKLCPYFYVCTYQFTVLFRAAGLAGSDVITAVMSPTTRGLREAMKNEGITFSQPLVEDDTGKKQKKPEAASQGDINPEKENGTAEADEASDESDEDESFSWLEEMGVEDKIKKPDSISIKLRKEKNEVKLDHKPESVVLVKGTNTFTLLNFLINCKSIVAAAGLQAGLPPTLLSPVAFRGATMHALKARSVNVKTRVNSGYKDQFSLEITGPIMPHSLHSLTMLLQSAQRGSFSAGLYTHEPTAVFNTPIHSQAVKEISADLQNCGLHPCTVEQLTQVNELGKLSLRHLEMTDYRYTWK
notes: Xenopus DONSON (Downstream Neighbor of SON); also called rFLAG-DONSON; FLAG-DONSON; source: E. coli Rosetta (DE3) pLysS, purified (Glutathione Sepharose, PreScission cleavage, Superdex 200); not shown: GST, N-terminal, cleaved
[2]
  binding: binds

B3: Endogenous MCM3 of Xenopus nucleoplasmic egg extract (protein, UniProt P49739 1-807)
chain: MDYGGGFEDHELREAQREYLDFLDDDQDQGLYHGKVRDMIGSNEHRLIVNLNDVRRKNDKRANLMLNDAFAETIAFQRALKDLVASIDATYAKQFEEFSVGFEGSFGSKHVSPRTLTASLLGSLVCVEGIVTKCSLVRPKVMRSVHYCPATKKTLERKYSDLTSLEAFPSSSIYPTKDEENNPLETEYGLSTYKDHQTLSIQEMPEKAPAGQLPRSVDIIADDDLVDKCKPGDRVQIVGIYRCLPSKQGGFTSGTFRTILLANNIKLMSKEIAPTFSADDVAKIKKFCKAHSKDIFEHLSKSLAPSIHGHEYIKKAILCMLLGGNEKVLENGTRIRGDINVLLIGDPSVAKSQLLRYVLHTAPRAIPTTGRGSSGVGLTAAVTTDQETGERRLEAGAMVLADRGVVCIDEFDKMSDMDRTAIHEVMEQGRVTIAKAGIQARLNARCSVLAAANPVYGRYDQYRTPMENIGLQDSLLSRFDLLFIVLDKMDADNDQEIADHVLRMHRYRTPGEQDGYALPLGCSVEIFATDDPNASDVTDQELQIYEKHDNLLHGPRKNKSKIVSMQFIRKYIHVAKLIKPVLTSEAADYISQEYAKIRNHDQINNDSARTMPVTARALETMIRLSTAHAKVRMSKTIERQDAETALELVQFAYFKKVLAKEKKKTDKDLHDENLSQDTLSQESVRKSSRRAGKIADSQDDSMDPYSFSEQDSSLNENLSQSLRPQRKKAESQDGKRSLSQNRTKEFKAALLKAFKSSRSQSVAVSQLLELINKGNPEPFERSEVKEALDNMQNDNQVMVSEDVVFLI
[3]
  binding: no binding
